According to PubChem BioAssay AID1745847 (National Center for Advancing Translational Sciences (NCATS), 2022):
Among all 2,100 compounds or so, about 670 (32%) were called active. Inconclusive means that the source gave no clear call. Such entries were picked first, then a sample of the others. The call rests on the fitted dose curve; in most records, active means well fitted inhibition curve with a large enough effect; inconclusive means small, poorly fitted or top-dose-only effect; inactive means no such curve, though single readings can be large or run the other way. Potencies beside an inconclusive call are fits to weak or partial responses and may not hold up.

Assay: CMV-Luciferase Counterscreen for Inhibitors of ATXN expression; further: nearly all actives have a fitted effect of over 55% in size
Conditions: HEK-293 CMV-luciferase reporter, luminescence, 24 h; series mostly up to 57.5 µM
On the % scale 0 is the no-effect control and ±100 the full control effect; potency means the concentration at half of the fitted maximal effect; tags describe the fitted curve by direction and shape.

SMILES	Potency	activity change, negative = inhibition
C=CCn1cnc2c(c1=O)c1nc3ccccc3nc1n2/N=C/c1cc(OC)c(OC)c(OC)c1	inactive	
Cc1cc(C)cc(C(=O)Nc2ccc(N3CCN(C(=O)c4ccco4)CC3)cc2)c1	inconclusive: 3.98 µM [inhibitor, partial curve]	
CC(C)(C)c1ccc(NC(=O)N2CCCN(c3c(Cl)cncc3Cl)CC2)cc1	inactive	
Oc1ccc(C2CNCc3sccc32)cc1O (centres undefined)	inactive	
C=CCc1cccc(/C=N/NC(=O)CNc2ccccc2OC)c1O	inconclusive: 7.94 µM [inhibitor, full curve, poor fit]	
Cc1ccc(C(=O)COC(=O)c2ccc3c(c2)C(=O)N(c2cccc4ncccc24)C3=O)cc1	inconclusive: 20 µM [inhibitor, partial curve, poor fit]	
NNc1ncnc2sc3c(c12)CCC3	inconclusive: 35.5 µM [inhibitor, single point]	
Cc1cccn2c(=O)c(/C=C(\C#N)C(N)=O)c(N3CCN(c4cccc(Cl)c4)CC3)nc12	inconclusive: 22.4 µM [inhibitor, single point]	
NS(=O)(=O)c1ccc(N2N=C(c3ccccc3)CC2c2ccc(F)cc2)cc1 (centres undefined)	inconclusive: 7.08 µM [inhibitor, single point]	
COc1cccc(Nc2nc(C(N)CCc3ccccc3)cs2)n1 (centres undefined)	inconclusive: 31.6 µM [inhibitor, single point]	
CCn1c(COc2ccccc2C)nnc1SCC(=O)N1CCN(c2ccccc2)CC1	inconclusive: 11.2 µM [inhibitor, partial curve, poor fit]	
CN(C)CCNC(=O)c1cccc(-c2cnc3c(NC=O)cc(/C=C/c4ccccc4)cn23)c1	inactive	
NNc1nc(N)c2c(n1)-c1ccccc1CC21CCCC1	inconclusive: 22.4 µM [inhibitor, partial curve, poor fit]	
Cc1c(C(=O)N/N=C/c2c(O)ccc3ccccc23)nnn1-c1nonc1N	active: 0.282 µM	
O=C(NCC(=O)N1CC(O)CC1C(=O)N1CCCC1C(=O)OCc1ccccc1)OCc1ccccc1 (centres undefined)	inconclusive: 3.98 µM [inhibitor, single point]	
Cc1cc(C)n(CC(O)Cn2c3ccc(Cl)cc3c3cc(Cl)ccc32)c(=O)n1 (centres undefined)	inconclusive: 4.47 µM [inhibitor, single point]	
CCSc1ccc(-c2cc(NC=O)c3ncc(-c4cccc(C(=O)NCCN(C)C)c4)n3c2)cc1	inconclusive: 6.31 µM [inhibitor, single point]	
Cc1cc(O)c(C)c(O)c1/C=N/NC(=O)c1cccnc1	inconclusive: 8.91 µM [inhibitor, partial curve, poor fit]	
COc1cc(Br)cc(/C=N/NC(=O)Cc2ccc(C(F)(F)F)cc2[N+](=O)[O-])c1O	inconclusive: 10 µM [inhibitor, partial curve, poor fit]	
O=C(N/N=C\c1cccnc1)c1cc(-c2ccccc2)nc2c(Cl)cccc12	inconclusive: 20 µM [inhibitor, partial curve, poor fit]	
COc1cc(NC(=O)c2cc(-c3ccccc3)nc3c2cnn3C(C)C)cc(OC)c1OC	active: 3.16 µM	
O=C(CNC(=O)c1ccccc1)N/N=C/c1cc(Br)ccc1O	inconclusive: 10 µM [inhibitor, partial curve, poor fit]	

SMILES	Potency	activity change, negative = inhibition
Cc1[nH]n(-c2cccc3ccccc23)c(=O)c1/C=N/NC(=O)c1cccc([N+](=O)[O-])c1	inconclusive: 8.91 µM [inhibitor, full curve, poor fit]	
O=C(Nc1ccc(Cl)cc1)Nc1nc(-c2sccc2Br)cs1	inactive	
O=C(OCCN1C(=O)c2cccc3c(N4CCOCC4)ccc(c23)C1=O)c1ccccc1Cl	active: 15.8 µM	
CCOc1ccc(N(CC(=O)NCCC2=CCCCC2)S(=O)(=O)c2ccccc2)cc1	inconclusive: 6.31 µM [inhibitor, single point]	
COc1cnc(-c2ccccn2)nc1Oc1c(C)cccc1C	inconclusive: 25.1 µM [inhibitor, single point]	
Cn1nnnc1Sc1ncnc2scc(-c3cccc(S(C)(=O)=O)c3)c12	active: 14.1 µM	
O=c1c2c3c(sc2ncn1/N=C/c1ccc([N+](=O)[O-])o1)CCCC3	inconclusive: 8.91 µM [inhibitor, single point]	
Cc1onc(-c2ccccc2)c1C(=O)N/N=C/c1c[nH]c2ccccc12	inconclusive: 11.2 µM [inhibitor, partial curve, poor fit]	
COc1cccc2c1C(CO)N1C(C#N)C3CC(C(=O)O)C(C1C2)N3C (centres undefined)	inactive	
CSc1sc(C(=O)NN)c2c1C1(CCC2)SCCS1	inconclusive: 31.6 µM [inhibitor, single point]	
CC(C)CC[n+]1ccn(C2=C([O-])c3ccccc3C(=O)/C2=N\S(=O)(=O)c2ccccc2)c1	inconclusive: 4.47 µM [inhibitor, partial curve, poor fit]	
O=C(Nc1cnn(C23CC4CC(CC(C4)C2)C3)c1)c1cnn2c(C(F)(F)F)cc(-c3ccco3)nc12	active: 15.8 µM	
CC[n+]1ccccc1/C=C1\Sc2ccc(C)cc2N1C	active: 6.31 µM	
Cc1c(C(=O)NCc2ccc(C(F)(F)F)cc2)sc(=O)n1Cc1cccc(F)c1	inconclusive: 25.1 µM [inhibitor, single point]	
COc1ccc(C(=O)NC(=C(Cl)Cl)S(=O)(=O)c2ccc(C)cc2)cc1	inconclusive: 7.08 µM [inhibitor, single point]	
COc1cccc(/C=N/NC(=O)c2nc(-c3ccccc3)cc(-c3ccccc3)n2)c1O	inconclusive: 2.51 µM [inhibitor, partial curve, poor fit]	
CCCCc1ccc(N/C(N)=N/c2nc(C)cc(C)n2)cc1	inconclusive: 1.78 µM [inhibitor, partial curve]	
CN(C)c1ccccc1-c1cc(NC=O)c2ncc(-c3cccc(C(F)(F)F)c3)n2c1		inactive: -12.7% [at 11.4 µM]
CCC(=O)NC(c1ccc(OC)cc1)c1cc(Cl)c2cccnc2c1O (centres undefined)	inconclusive: 2 µM [inhibitor, full curve, poor fit]	
Cc1ccc(NC(=O)CSc2n[nH]c(-c3ccccn3)n2)cc1	inconclusive: 1.26 µM [inhibitor, partial curve, poor fit]	
COc1ccc(CC(=O)N/N=C(\C)c2ccccn2)cc1	active: 8.91 µM	
CCOC(=O)c1c(NC(=O)COC(=O)CNC(=O)c2ccco2)sc(C)c1C		inactive: 24.5% [at 11.4 µM]

SMILES	Potency	activity change, negative = inhibition
Cc1cc(/C=N/n2cnnc2)c(C)n1-c1ccc(OCc2ccc(F)cc2)cc1	inconclusive: 3.55 µM [inhibitor, full curve, poor fit]	
CCN(CC)C(=O)c1cccc(-c2csc(C(C)(O)c3cccc(F)c3)n2)c1 (centres undefined)	inconclusive: 2.82 µM [inhibitor, partial curve, poor fit]	
CCN(CC)c1ccc(C(=O)N/N=C/c2ccccc2OC(F)F)cc1	inconclusive: 6.31 µM [inhibitor, single point]	
Cc1nn(-c2ccccc2)c2nc(-c3cccs3)cc(C(=O)NN)c12	inconclusive: 11.2 µM [inhibitor, partial curve, poor fit]	
CN(C)CCCN(C(=O)c1ccc(S(=O)(=O)N2CCCC2)cc1)c1nc2ccc(Br)cc2s1	inconclusive: 28.2 µM [inhibitor, single point]	
NNC(=O)c1sc2cc(C(F)(F)F)cnc2c1-c1cccs1	inconclusive: 22.4 µM [inhibitor, single point]	
Cc1ccc(NC(=O)CN2C(=O)c3ccccc3S2(=O)=O)cc1C	inconclusive: 25.1 µM [inhibitor, single point]	
CCOc1ccc(S(=O)(=O)NCCC(=O)N2CC=C(c3ccccc3)CC2)cc1	inconclusive: 12.6 µM [inhibitor, partial curve, poor fit]	
O=c1c2ccc(Cl)cc2nc(-c2cccc(C(F)(F)F)c2)n1O	inconclusive: 3.98 µM [inhibitor, full curve]	
O=[N+]([O-])c1ccccc1S(=O)c1ccccc1[N+](=O)[O-]	inconclusive: 39.8 µM [inhibitor, single point]	
COc1nn(-c2ccccc2)c(=O)c(Cl)c1Cl	inconclusive: 6.31 µM [inhibitor, single point]	
CC(C)CC(N)c1csc(Nc2ccc(C(=O)N(C)Cc3ccccc3)cn2)n1 (centres undefined)	inconclusive: 39.8 µM [inhibitor, single point]	
O=C(Nc1ccccc1N1CCN(C(=O)c2ccccc2)CC1)c1ccc(Br)o1	active: 28.2 µM	
O=C(Cn1nc2ccccc2n1)N/N=C/c1cc([N+](=O)[O-])ccc1O	inconclusive: 4.47 µM [inhibitor, single point]	
Cc1ccc(C(=O)CN2C(=O)c3ccccc3S2(=O)=O)cc1	active: 0.398 µM	
COc1cc(C#Cc2c(-c3cncn3C)n(C)c3ccc(-c4ccc(CN5CCOCC5)cc4)cc23)cc(OC)c1		inactive: -6.42% [at 11.4 µM]
Cc1cccc(/C=N/NC(=O)c2cccc(Cl)c2)n1		inactive: -14.3% [at 11.4 µM]
Cc1ccc(Cn2ncc3c(NN)ncnc32)cc1	inconclusive: 28.2 µM [inhibitor, single point]	
CC(Oc1ccc(F)cc1)C(=O)Nc1nc(-c2ccccn2)cs1 (centres undefined)	active: 2.51 µM	
CN1CCN(c2nc(Nc3ccc(F)cc3)nc(Nc3ccc(F)cc3)n2)CC1	inconclusive: 15.8 µM [inhibitor, partial curve]	
